The results in this text go back to PMC9469500, “Targeting an Initiator Allergen Provides Durable and Expansive Protection against House Dust Mite Allergy” (ACS Pharmacology & Translational Science, 2022).

Each structure is given as a SMILES string. Counter-ions that a name gives are not always drawn.

This assay has as its system sensitized rats challenged with purified Der p 1. Description: Purified Der p 1 challenge in sensitized rats (BAL cells). The following applies: i.t. aerosol challenge with 0.01 or 10 µg purified Der p 1.

With `CC(C)[C@H](NC(=O)[C@H](C)NC(=O)[C@@H](NC(=O)C1CC[N+](C)(C)CC1)C(C)(C)C)C(=O)C(=O)NCc1ccccc1` [Compound 2, 4-{(S)-1-[(S)-1-((S)-1-benzylaminooxalyl-2-methyl-propylcarbamoyl)-ethylcarbamoyl]-2,2-dimethyl-propylcarbamoyl}-1,1-dimethyl-piperidinium formate], the “BAL neutrophil response after Der p 1 challenge” value was “inhibited” and the “changes in BAL eosinophils after Der p 1 challenge” value is “inhibited”.
